Assays:
Assay type in all cases: in vivo
[1] = tested on: Blumeria graminis f sp. hordei; assay: Test Example D: Powdery mildew on barley; settings: for Test D (control value class): powdery mildew on barley; for Test D (control value class) / Test D control value (powdery mildew on barley): 250 ppm spray; for Test D (control value class, powdery mildew on barley): in vivo; for Test D control value (powdery mildew on barley): preventive, control value class
Source text: [Test Example D] Powdery Mildew on Barley
After the sprayed dilutions were dried, conidia of Blumeria graminis f sp. hordei were inoculated to the plants by shaking off.

[2] = tested on: Botrytis cinerea; assay: Test Example B: Gray mold on tomato; settings: for Test B (control value class): gray mold on tomato, Botrytis cinerea; for Test B (control value class) / Test B control value (gray mold on tomato): 250 ppm spray; for Test B (control value class, gray mold on tomato): in vivo; for Test B control value (gray mold on tomato): preventive, control value class
Source text: [Test Example B] Gray Mold on Tomato
Seeds of a test plant (tomato variety: Oogata Fukuju) were planted followed by cultivating until three to five first leaves (true leaves) appeared.

[3] = tested on: Plasmopara viticola; assay: Test Example G: Downy mildew on vine; settings: for Test G (control value class): downy mildew on vine, Plasmopara viticola, 250 ppm spray; for Test G (control value class) / Test G control value (downy mildew on vine): 7-10 days after inoculation; for Test G (control value class, downy mildew on vine): 250 ppm, sprayed 2.5 ml/pot before inoculation, evaluated 7-10 days after inoculation; for Test G control value (downy mildew on vine): 250 ppm spray (2.5 ml/pot), preventive, control value class
Source text: [Test Example G] Downy Mildew on Vine
Seeds of a test plant (grape variety: Neomuscat) were planted followed by cultivating until three to four first leaves appeared. […] After the sprayed dilutions were dried, a zoosporangia suspension (1-2×10^4 zoosporangia/ml) of Plasmopara viticola was inoculated to the plants by spraying.

[4] = tested on: Puccinia recondita; assay: Test Example E: Brown rust on wheat; settings: for Test E (control value class): brown rust on wheat, Puccinia recondita; for Test E (control value class) / Test E control value (brown rust on wheat): 250 ppm spray; for Test E (control value class, brown rust on wheat): in vivo; for Test E control value (brown rust on wheat): preventive, control value class
Source text: [Test Example E] Brown Rust on Wheat

[5] = tested on: Alternaia brassicicola; assay: Test Example C: Alternaria sooty spot on cabbage; settings: for Test C (control value class): Alternaria sooty spot on cabbage; for Test C (control value class) / Test C control value (Alternaria sooty spot on cabbage): 250 ppm spray; for Test C (control value class, Alternaria sooty spot on cabbage): in vivo; for Test C control value (Alternaria sooty spot on cabbage): preventive, control value class
Source text: [Test Example C] Alternaria Sooty Spot on Cabbage
Seeds of a test plant (cabbage variety: Shikidori) were planted followed by cultivating until the cotyledons extended.

In the case of `COc1ccc(Cl)c(-c2ccc(=O)n(N)c2-c2c(F)cccc2F)c1` [Compound 422], the “Test D (control value class)” value [1] was “L (L shows 50% or less of control values)”, the “Test B (control value class)” value [2] was “H (H shows more than 50% of control values)” and the “Test G (control value class)” value [3] was “L (L shows 50% or less of control values)”. The “Test E (control value class)” value [4] was “H (H shows more than 50% of control values)” and the “Test C (control value class)” value [5] was “H (H shows more than 50% of control values)”.
In the case of `Cn1c(-c2c(F)cccc2F)c(-c2ccc(Cl)cc2F)ccc1=O` [Compound 418], the “Test D (control value class)” value [1] was “L (L shows 50% or less of control values)”, the “Test B (control value class)” value [2] was “H (H shows more than 50% of control values)” and the “Test G (control value class)” value [3] was “L (L shows 50% or less of control values)”. For the same compound, the “Test E (control value class)” value [4] was “H (H shows more than 50% of control values)” and the “Test C (control value class)” value [5] was “H (H shows more than 50% of control values)”.
In the case of `CCOc1cc(F)c(-c2c(-c3cccc(F)c3Cl)cc(Cl)c(=O)n2CC)c(F)c1` [Compound 658], the “Test D (control value class, powdery mildew on barley)” value [1] was “H (H shows more than 50% of control values)”, the “Test B (control value class, gray mold on tomato)” value [2] was “H (H shows more than 50% of control values)” and the “Test G (control value class, downy mildew on vine)” value [3] was “L (L shows 50% or less of control values)”. The “Test E (control value class, brown rust on wheat)” value [4] was “H (H shows more than 50% of control values)” and the “Test C (control value class, Alternaria sooty spot on cabbage)” value [5] was “H (H shows more than 50% of control values)”.
For `CCN1C(=O)CCC(c2cc(OC)cc(OC)c2Cl)=C1c1c(F)cc(F)cc1F` [Compound 342], the “Test D control value (powdery mildew on barley)” value (shortened to “Test D control value”) [1] was “H (H shows more than 50% of control values)”, the “Test B control value (gray mold on tomato)” value (“Test B control value” below) [2] was “H (H shows more than 50% of control values)” and the “Test G control value (downy mildew on vine)” value (shortened to “Test G control value”) [3] was “L (L shows 50% or less of control values)”. For the same compound, the “Test E control value (brown rust on wheat)” value (“Test E control value” below) [4] was “H (H shows more than 50% of control values)” and the “Test C control value (Alternaria sooty spot on cabbage)” value (shortened to “Test C control value”) [5] was “H (H shows more than 50% of control values)”.
In the case of `Cn1c(-c2c(F)cc(Br)cc2F)c(-c2cc(F)ccc2Cl)ccc1=O` [Compound 680], the “Test D (control value class, powdery mildew on barley)” value [1] was “L (L shows 50% or less of control values)”, the “Test B (control value class, gray mold on tomato)” value [2] was “H (H shows more than 50% of control values)” and the “Test G (control value class, downy mildew on vine)” value [3] was “L (L shows 50% or less of control values)”. The “Test E (control value class, brown rust on wheat)” value [4] was “H (H shows more than 50% of control values)” and the “Test C (control value class, Alternaria sooty spot on cabbage)” value [5] was “H (H shows more than 50% of control values)”.
For `CCn1c(-c2c(F)cccc2F)c(-c2cc(F)ccc2Cl)cc(F)c1=O` [Compound 512], the “Test D (control value class)” value [1] was “H (H shows more than 50% of control values)”, the “Test B (control value class)” value [2] was “H (H shows more than 50% of control values)” and the “Test G (control value class)” value [3] was “H (H shows more than 50% of control values)”. For the same compound, the “Test E (control value class)” value [4] was “H (H shows more than 50% of control values)” and the “Test C (control value class)” value [5] was “H (H shows more than 50% of control values)”.
In the case of `CCCCOc1ccc(Cl)c(-c2ccc(=O)n(CC)c2-c2c(F)cccc2F)c1` [Compound 252], the “Test D control value” value [1] was “H (H shows more than 50% of control values)”, the “Test B control value” value [2] was “L (L shows 50% or less of control values)” and the “Test G control value” value [3] was “L (L shows 50% or less of control values)”. For the same compound, the “Test E control value” value [4] was “L (L shows 50% or less of control values)” and the “Test C control value” value [5] was “H (H shows more than 50% of control values)”.
`C#CCOc1ccc(Cl)c(-c2ccc(=O)n(C)c2-c2c(F)cccc2F)c1` [Compound 243] was tested, and the “Test D control value” value [1] was “H (H shows more than 50% of control values)”, the “Test B control value” value [2] was “H (H shows more than 50% of control values)” and the “Test G control value” value [3] was “H (H shows more than 50% of control values)”. For the same compound, the “Test E control value” value [4] was “H (H shows more than 50% of control values)” and the “Test C control value” value [5] was “H (H shows more than 50% of control values)”.
`CCn1c(-c2c(F)cccc2F)c(-c2cc(OC)ccc2Cl)cc(C)c1=O` [Compound 329, 5-(2-chloro-5-methoxyphenyl)-6-(2,6-difluorophenyl)-1-ethyl-3-methylpyridine-2(1H)-one] was tested, and the “Test D control value” value [1] was “H (H shows more than 50% of control values)”, the “Test B control value” value [2] was “H (H shows more than 50% of control values)” and the “Test G control value” value [3] was “H (H shows more than 50% of control values)”. For the same compound, the “Test E control value” value [4] was “H (H shows more than 50% of control values)” and the “Test C control value” value [5] was “H (H shows more than 50% of control values)”.
In the case of `CCOc1cc(F)c(-c2c(-c3cccc(OC)c3Cl)cc(Br)c(=O)n2CC)c(F)c1` [Compound 643], the “Test D (control value class, powdery mildew on barley)” value [1] was “H (H shows more than 50% of control values)”, the “Test B (control value class, gray mold on tomato)” value [2] was “H (H shows more than 50% of control values)” and the “Test G (control value class, downy mildew on vine)” value [3] was “H (H shows more than 50% of control values)”. The “Test E (control value class, brown rust on wheat)” value [4] was “H (H shows more than 50% of control values)” and the “Test C (control value class, Alternaria sooty spot on cabbage)” value [5] was “H (H shows more than 50% of control values)”.
With `COc1ccc(-c2cc(Br)c(=O)n(C)c2-c2c(F)cccc2F)c(Cl)c1` [Compound 744] the “Test D (control value class, powdery mildew on barley)” value [1] was “L (L shows 50% or less of control values)”, the “Test B (control value class, gray mold on tomato)” value [2] was “L (L shows 50% or less of control values)” and the “Test G (control value class, downy mildew on vine)” value [3] was “L (L shows 50% or less of control values)”. The “Test E (control value class, brown rust on wheat)” value [4] was “H (H shows more than 50% of control values)” and the “Test C (control value class, Alternaria sooty spot on cabbage)” value [5] was “L (L shows 50% or less of control values)”.
With `COc1cc(F)c(-c2c(-c3cccc(F)c3F)ccc(=O)n2C)c(F)c1` [Compound 561] the “Test D (control value class, powdery mildew on barley)” value [1] was “H (H shows more than 50% of control values)”, the “Test B (control value class, gray mold on tomato)” value [2] was “H (H shows more than 50% of control values)” and the “Test G (control value class, downy mildew on vine)” value [3] was “H (H shows more than 50% of control values)”. For the same compound, the “Test E (control value class, brown rust on wheat)” value [4] was “H (H shows more than 50% of control values)” and the “Test C (control value class, Alternaria sooty spot on cabbage)” value [5] was “H (H shows more than 50% of control values)”.
For `COc1cc(OC)c(Br)c(-c2ccc(=O)n(C)c2-c2c(F)cc(Br)cc2F)c1` [Compound 204], the “Test D control value” value [1] was “H (H shows more than 50% of control values)”, the “Test B control value” value [2] was “H (H shows more than 50% of control values)” and the “Test G control value” value [3] was “H (H shows more than 50% of control values)”. The “Test E control value” value [4] was “H (H shows more than 50% of control values)” and the “Test C control value” value [5] was “H (H shows more than 50% of control values)”.
With `O=c1ccc(-c2ccc(Cl)cc2F)c(-c2c(F)cccc2F)n1CC(F)F` [Compound 428] the “Test D (control value class)” value [1] was “H (H shows more than 50% of control values)”, the “Test B (control value class)” value [2] was “H (H shows more than 50% of control values)” and the “Test G (control value class)” value [3] was “H (H shows more than 50% of control values)”. The “Test E (control value class)” value [4] was “H (H shows more than 50% of control values)” and the “Test C (control value class)” value [5] was “H (H shows more than 50% of control values)”.
With `CCn1c(-c2c(F)cccc2F)c(-c2cc(OCCOC)ccc2Cl)cc(Br)c1=O` [Compound 196] the “Test D control value” value [1] was “H (H shows more than 50% of control values)”, the “Test B control value” value [2] was “H (H shows more than 50% of control values)” and the “Test G control value” value [3] was “H (H shows more than 50% of control values)”. For the same compound, the “Test E control value” value [4] was “H (H shows more than 50% of control values)” and the “Test C control value” value [5] was “H (H shows more than 50% of control values)”.
With `COc1cc(F)c(-c2c(-c3cccc(OC)c3Cl)cc(Br)c(=O)n2C)c(F)c1` [Compound 669] the “Test D (control value class, powdery mildew on barley)” value [1] was “L (L shows 50% or less of control values)”, the “Test B (control value class, gray mold on tomato)” value [2] was “H (H shows more than 50% of control values)” and the “Test G (control value class, downy mildew on vine)” value [3] was “L (L shows 50% or less of control values)”. For the same compound, the “Test E (control value class, brown rust on wheat)” value [4] was “H (H shows more than 50% of control values)” and the “Test C (control value class, Alternaria sooty spot on cabbage)” value [5] was “H (H shows more than 50% of control values)”.
